From the supplement of paper PMC6089552
Hit rate of the full screen: of about 3,200 compounds, about 300 (9.4%) showed activity. The entries are a selection whose mix differs from that of the whole data set.

Test system: A673/TR/shEF
Test: cell viability (LOESS-normalised, relative to median of negative controls) (log2 ratio); higher = more viable cells (less compound effect), active = hit call of the paper (over 3 MAD below the median)
Conditions: treatment time: 72 h
Method in brief: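 Viability of A673/TR/shEF Ewing sarcoma cells was determined by CellTiter-Glo luminescence. The cells, at 1,500 per well in 384-well plates, were grown with or without doxycycline from 24 h before compound addition to switch on EWS-FLI1 shRNA knockdown, then exposed for three days to library compounds at two or more concentrations or to DMSO controls. Signals were LOESS-corrected plate by plate, normalised to the negative-control median and log2-transformed.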

[1] = 0.25 µM, library screen: screen2, EWS-FLI1 expression: high (no doxycycline)
[2] = 0.25 µM, library screen: screen2, EWS-FLI1 expression: low (doxycycline-induced shRNA knockdown)
[3] = 2.5 µM, library screen: screen2, EWS-FLI1 expression: high (no doxycycline)
[4] = 2.5 µM, library screen: screen2, EWS-FLI1 expression: low (doxycycline-induced shRNA knockdown)
[5] = 0.25 µM, library screen: screen1, EWS-FLI1 expression: high (no doxycycline)
[6] = 0.25 µM, library screen: screen1, EWS-FLI1 expression: low (doxycycline-induced shRNA knockdown)
[7] = 2.5 µM, library screen: screen1, EWS-FLI1 expression: high (no doxycycline)
[8] = 2.5 µM, library screen: screen1, EWS-FLI1 expression: low (doxycycline-induced shRNA knockdown)
[9] = 0.103 µM, library screen: screen3, EWS-FLI1 expression: high (no doxycycline)
[10] = 0.103 µM, library screen: screen3, EWS-FLI1 expression: low (doxycycline-induced shRNA knockdown)
[11] = 0.308 µM, library screen: screen3, EWS-FLI1 expression: high (no doxycycline)
[12] = 0.308 µM, library screen: screen3, EWS-FLI1 expression: low (doxycycline-induced shRNA knockdown)
[13] = 0.926 µM, library screen: screen3, EWS-FLI1 expression: high (no doxycycline)
[14] = 0.926 µM, library screen: screen3, EWS-FLI1 expression: low (doxycycline-induced shRNA knockdown)
[15] = 2.8 µM, library screen: screen3, EWS-FLI1 expression: high (no doxycycline)
[16] = 2.8 µM, library screen: screen3, EWS-FLI1 expression: low (doxycycline-induced shRNA knockdown)
[17] = 8.3 µM, library screen: screen3, EWS-FLI1 expression: high (no doxycycline)
[18] = 8.3 µM, library screen: screen3, EWS-FLI1 expression: low (doxycycline-induced shRNA knockdown)
[19] = 25 µM, library screen: screen3, EWS-FLI1 expression: high (no doxycycline)
[20] = 25 µM, library screen: screen3, EWS-FLI1 expression: low (doxycycline-induced shRNA knockdown)

Cn1c(=O)c2[nH]c(-c3ccc(S(=O)(=O)O)cc3)nc2n(C)c1=O
cell viability (log2) [1]: inactive: 0.235
cell viability (log2) [2]: inactive: 0.0873
cell viability (log2) [3]: inactive: 0.0666
cell viability (log2) [4]: inactive: 0.0936

CC[C@H]1OC(=O)[C@H](C)[C@@H](O[C@H]2C[C@@](C)(OC)[C@@H](O)[C@H](C)O2)[C@H](C)[C@@H](O[C@@H]2O[C@H](C)C[C@H](N(C)C)[C@H]2O)[C@](C)(O)C[C@@H](C)/C(=N/OCOCCOC)[C@H](C)[C@@H](O)[C@]1(C)O
cell viability (log2) [5]: inactive: 0.13
cell viability (log2) [6]: inactive: 0.107
cell viability (log2) [7]: inactive: 0.122
cell viability (log2) [8]: inactive: 0.103

CN=C(N)NCCC[C@H](N)C(=O)O
cell viability (log2) [1]: inactive: 0.135
cell viability (log2) [2]: inactive: 0.0635
cell viability (log2) [3]: inactive: 0.148
cell viability (log2) [4]: inactive: 0.0854

NS(O)(O)Cc1noc2ccccc12
cell viability (log2) [1]: inactive: 0.153
cell viability (log2) [2]: inactive: 0.0786
cell viability (log2) [3]: inactive: 0.183
cell viability (log2) [4]: inactive: 0.124

CC[C@]12CCCN3CCc4c(n(c5ccccc45)C(=O)C1)[C@@H]32
cell viability (log2) [5]: inactive: 0.0175
cell viability (log2) [6]: inactive: 0.0321
cell viability (log2) [7]: inactive: 0.0724
cell viability (log2) [8]: inactive: 0.0347

CC(N)(C(=O)O)c1ccc(C(=O)O)cc1 (stereo not given)
cell viability (log2) [1]: inactive: 0.0845
cell viability (log2) [2]: inactive: 0.186
cell viability (log2) [3]: inactive: 0.128
cell viability (log2) [4]: inactive: 0.0744

CC#CCOC(=O)c1c(C)nc2sc3c(c2c1N)CCC(O)C3 (stereo not given)
cell viability (log2) [1]: inactive: 0.106
cell viability (log2) [2]: inactive: 0.0178
cell viability (log2) [3]: inactive: 0.229
cell viability (log2) [4]: inactive: 0.0164

NCC(O)c1ccc(O)c(O)c1 (stereo not given)
cell viability (log2) [1]: active: -0.177
cell viability (log2) [2]: inactive: 0.0558
cell viability (log2) [3]: inactive: 0.0351
cell viability (log2) [4]: inactive: -0.00208

CCn1cc(C(=O)O)c(=O)c2cc(F)c(N3CCNC(C)C3)c(F)c21 (stereo not given)
cell viability (log2) [9]: inactive: 0.0316
cell viability (log2) [10]: inactive: 0.0571
cell viability (log2) [5]: inactive: 0.0538
cell viability (log2) [6]: inactive: 0.0764
cell viability (log2) [1]: inactive: 0.0719
cell viability (log2) [2]: inactive: 0.118
cell viability (log2) [11]: inactive: 0.0629
cell viability (log2) [12]: inactive: 0.00567
cell viability (log2) [13]: inactive: -0.0224
cell viability (log2) [14]: inactive: 0.0164
cell viability (log2) [7]: inactive: 0.104
cell viability (log2) [8]: inactive: 0.0913
cell viability (log2) [3]: inactive: 0.103
cell viability (log2) [4]: inactive: 0.152
cell viability (log2) [15]: inactive: 0.0299
cell viability (log2) [16]: inactive: 0.0284
cell viability (log2) [17]: inactive: 0.0658
cell viability (log2) [18]: inactive: 0.0646
cell viability (log2) [19]: inactive: 0.0572
cell viability (log2) [20]: inactive: 0.0961

CS(=O)(=O)Nc1ccc([N+](=O)[O-])cc1Oc1ccccc1
cell viability (log2) [5]: inactive: 0.147
cell viability (log2) [6]: inactive: 0.0914
cell viability (log2) [1]: inactive: 0.0788
cell viability (log2) [2]: inactive: -0.000657
cell viability (log2) [7]: inactive: 0.123
cell viability (log2) [8]: inactive: 0.11
cell viability (log2) [3]: inactive: 0.101
cell viability (log2) [4]: inactive: 0.0459

O=C(O)C1=CCNCC1
cell viability (log2) [5]: inactive: 0.092
cell viability (log2) [6]: inactive: 0.14
cell viability (log2) [1]: inactive: 0.185
cell viability (log2) [2]: inactive: 0.088
cell viability (log2) [7]: inactive: 0.0671
cell viability (log2) [8]: inactive: 0.217
cell viability (log2) [3]: inactive: 0.23
cell viability (log2) [4]: inactive: 0.0512

CCC1=C[C@@H]2CN(C1)Cc1c([nH]c3ccccc13)[C@@](C(=O)OC)(c1cc3c(cc1OC)N(C)[C@H]1[C@@](O)(C(=O)OC)[C@H](OC(C)=O)[C@]4(CC)C=CCN5CC[C@]31[C@@H]54)C2
cell viability (log2) [9]: active: -4.31
cell viability (log2) [10]: active: -1.05
cell viability (log2) [11]: active: -3.96
cell viability (log2) [12]: active: -1.11
cell viability (log2) [13]: active: -4.31
cell viability (log2) [14]: active: -0.811
cell viability (log2) [15]: active: -4.31
cell viability (log2) [16]: active: -0.798
cell viability (log2) [17]: active: -3.91
cell viability (log2) [18]: active: -0.769
cell viability (log2) [19]: active: -3.44
cell viability (log2) [20]: active: -0.836

COC1[C@H](O)[C@@H](O)C(O)[C@H](O)[C@H]1O (stereo not given in full)
cell viability (log2) [5]: inactive: 0.0827
cell viability (log2) [6]: inactive: 0.0562
cell viability (log2) [7]: inactive: 0.177
cell viability (log2) [8]: inactive: 0.115

CCOC(=O)CCC(=O)O[C@H]1[C@H](O[C@@H]2[C@@H](C)[C@H](O[C@H]3C[C@@](C)(OC)[C@@H](O)[C@H](C)O3)[C@@H](C)C(=O)O[C@H](CC)[C@@](C)(O)[C@H](O)[C@@H](C)C(=O)[C@H](C)C[C@@]2(C)O)O[C@H](C)C[C@@H]1N(C)C
cell viability (log2) [5]: inactive: 0.147
cell viability (log2) [6]: inactive: 0.0798
cell viability (log2) [7]: inactive: 0.135
cell viability (log2) [8]: inactive: -0.00105

C[C@]12C=CC(=O)C=C1CC[C@@H]1[C@@H]2C(=O)C[C@@]2(C)[C@H]1CC[C@]2(O)C(=O)CO
cell viability (log2) [9]: inactive: 0.0128
cell viability (log2) [10]: inactive: -0.00442
cell viability (log2) [5]: inactive: 0.0597
cell viability (log2) [6]: inactive: 0.0865
cell viability (log2) [11]: inactive: 0.0642
cell viability (log2) [12]: inactive: 0.0373
cell viability (log2) [13]: inactive: 0.119
cell viability (log2) [14]: inactive: 0.0782
cell viability (log2) [7]: inactive: 0.0821
cell viability (log2) [8]: inactive: 0.126
cell viability (log2) [15]: inactive: 0.0918
cell viability (log2) [16]: inactive: 0.158
cell viability (log2) [17]: inactive: 0.043
cell viability (log2) [18]: inactive: 0.0793
cell viability (log2) [19]: inactive: 0.104
cell viability (log2) [20]: inactive: 0.14

C[C@]12C=CC(=O)C=C1CC[C@@H]1C2=CC[C@]2(C)[C@@H](C(=O)CN3CCN(c4cc(N5CCCC5)nc(N5CCCC5)n4)CC3)CC[C@@H]12
cell viability (log2) [1]: inactive: 0.131
cell viability (log2) [2]: inactive: 0.0546
cell viability (log2) [3]: inactive: 0.0776
cell viability (log2) [4]: inactive: 0.0158

Cc1ccc(/C(=C\CN2CCCC2)c2ccccn2)cc1
cell viability (log2) [5]: inactive: 0.101
cell viability (log2) [6]: inactive: 0.13
cell viability (log2) [1]: inactive: 0.18
cell viability (log2) [2]: inactive: 0.0433
cell viability (log2) [7]: inactive: 0.246
cell viability (log2) [8]: inactive: 0.248
cell viability (log2) [3]: inactive: 0.203
cell viability (log2) [4]: inactive: 0.141

Oc1ccc([C@@H]2Oc3ccc(O)cc3[C@@H]3CCC[C@@H]32)cc1
cell viability (log2) [19]: active: -0.181

O=c1onc2n1-c1cc(Br)ccc1OC2
cell viability (log2) [1]: inactive: 0.108
cell viability (log2) [2]: inactive: 0.0407
cell viability (log2) [3]: inactive: 0.0924
cell viability (log2) [4]: inactive: 0.198

CNCCC=C1c2ccccc2CCc2ccccc21
cell viability (log2) [5]: inactive: 0.0497
cell viability (log2) [6]: inactive: 0.118
cell viability (log2) [1]: inactive: 0.2
cell viability (log2) [2]: inactive: 0.134
cell viability (log2) [7]: inactive: 0.067
cell viability (log2) [8]: inactive: 0.117
cell viability (log2) [3]: inactive: 0.169
cell viability (log2) [4]: inactive: 0.0842

C[C@]12CC[C@@H](O)C[C@H]1CC[C@@H]1[C@@H]2C(=O)C[C@@]2(C)[C@H]1CC[C@]2(O)C(=O)CO
cell viability (log2) [5]: inactive: 0.162
cell viability (log2) [6]: inactive: 0.116
cell viability (log2) [7]: inactive: 0.185
cell viability (log2) [8]: inactive: 0.0107

C[C@H]1[C@H](NC(=O)/C(=N\OC(C)(C)C(=O)O)c2csc(N)n2)C(=O)N1S(=O)(=O)O
cell viability (log2) [9]: inactive: -0.0125
cell viability (log2) [10]: inactive: 0.0891
cell viability (log2) [11]: inactive: 0.0136
cell viability (log2) [12]: inactive: 0.00917
cell viability (log2) [13]: inactive: 0.0649
cell viability (log2) [14]: inactive: 0.0584
cell viability (log2) [15]: inactive: 0.02
cell viability (log2) [16]: inactive: 0.0799
cell viability (log2) [17]: inactive: 0.0905
cell viability (log2) [18]: inactive: 0.112
cell viability (log2) [19]: inactive: 0.0642
cell viability (log2) [20]: inactive: 0.0641
